The full ranking holds about 33,000 sequences; the median of “E-score (-0.5 to 0.5)” is about -0.054, and the highest 2% start at about 0.35. This is one part of the list.
Molecular target: T1, Stb5 (UniProt P38699)
T1 sequence: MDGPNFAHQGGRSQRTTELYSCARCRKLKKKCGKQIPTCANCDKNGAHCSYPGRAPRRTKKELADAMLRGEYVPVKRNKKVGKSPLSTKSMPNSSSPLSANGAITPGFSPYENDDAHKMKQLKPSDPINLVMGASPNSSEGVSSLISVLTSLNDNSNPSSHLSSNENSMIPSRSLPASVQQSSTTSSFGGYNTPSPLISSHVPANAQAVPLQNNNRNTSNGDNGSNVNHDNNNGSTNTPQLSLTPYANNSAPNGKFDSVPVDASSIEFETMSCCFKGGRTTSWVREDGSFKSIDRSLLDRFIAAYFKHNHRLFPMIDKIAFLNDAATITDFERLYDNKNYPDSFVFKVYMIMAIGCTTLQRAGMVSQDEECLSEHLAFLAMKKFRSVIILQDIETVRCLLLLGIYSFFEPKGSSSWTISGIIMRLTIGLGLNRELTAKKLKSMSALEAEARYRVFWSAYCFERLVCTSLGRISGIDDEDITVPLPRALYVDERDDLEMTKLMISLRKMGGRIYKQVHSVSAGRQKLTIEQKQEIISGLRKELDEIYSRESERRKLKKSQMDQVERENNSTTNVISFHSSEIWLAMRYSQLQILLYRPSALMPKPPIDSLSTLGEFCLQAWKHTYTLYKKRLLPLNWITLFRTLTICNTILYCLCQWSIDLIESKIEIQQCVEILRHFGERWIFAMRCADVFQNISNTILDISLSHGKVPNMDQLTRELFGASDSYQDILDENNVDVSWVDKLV
Test: PBM E-score (8-mer binding enrichment) (E-score (-0.5 to 0.5)); higher = stronger / more preferred TF binding; most listed sequences are background and not binding sites
Conditions: protein concentration: 200 nM; construct: GST-full length
Outline: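 Detection of bound protein used fluorescent anti-GST, with scans normalised by masliner. The proteins were GST-tagged yeast transcription factors applied at about 100-200 nM to universal all-10-mer Agilent arrays made double-stranded by primer extension. Each ungapped eight-base word, pooled with its reverse complement, was scored with an E-score from the Universal PBM Analysis Suite.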

| Sequence | PBM E-score |
| --- | --- |
| CAAGGTAG | -0.116 |
| ACGAGGCA | -0.206 |
| CGGTCGTA | 0.381 |
| GCAAAAGC | 0.0498 |
| AGCGATTC | -0.0853 |
| ATTTTATC | 0.161 |
| AGAGGCCC | -0.168 |
| GCCAACCC | -0.171 |
| GAGGTTAA | 0.0281 |
| AAATACGA | -0.0284 |
| ACGCTACC | -0.0183 |
| ACTCCTTG | -0.00332 |
| AGTGAACG | -0.195 |
| CCATAGTA | -0.00415 |
| CTGCTACC | -0.129 |
| CAATTACC | 0.191 |
| GCTTAGTA | -0.0135 |
| ATTCTCGA | -0.188 |
| ATCGTGAC | -0.00593 |
| CCCTGATA | -0.187 |
| GAAGAGTC | -0.178 |
| ACGGATGG | 0.0651 |
| CATTGCCC | -0.155 |
| ATGTTAAA | 0.0317 |
| AGGGCGAG | -0.295 |

| Sequence | PBM E-score |
| --- | --- |
| AGTAATCC | -0.0793 |
| ACGAGGGC | -0.0712 |
| GCCTCATA | -0.12 |
| ACTGGTCG | -0.0341 |
| GACAGCAA | -0.194 |
| CGGTAAAG | 0.162 |
| ACTCAAGC | -0.128 |
| GATCGCAC | 0.105 |
| CTGGACCC | -0.128 |
| ACGATCTA | -0.27 |
| ATCAGACC | 0.132 |
| GATGTAGC | -0.187 |
| GGAAGTCC | 0.112 |
| ATCGCAAC | -0.0557 |
| AATGAGCT | -0.155 |
| AATATGCA | 0.0295 |
| ACCTCTTA | 0.0228 |
| AAAGGCTC | -0.133 |
| TCTCACAA | -0.173 |
| CTGATTCA | -0.14 |
| ATCAAAAC | -0.0789 |
| CGTCGATA | 0.107 |
| GACTATCA | -0.0319 |
| CAGTTGGA | -0.0561 |
| TCATAACA | 0.05 |

| Sequence | PBM E-score |
| --- | --- |
| ATCTCTAA | -0.0122 |
| CCTTACGA | -0.168 |
| TAAAATTA | 0.109 |
| AGAACCCG | 0.165 |
| ATTTATCC | 0.28 |
| CACATAGA | -0.0437 |
| GAAATTAA | 0.0176 |
| CACTCTCA | -0.237 |
| ACAGATCA | -0.209 |
| GGCGTGGA | -0.0499 |
| CTCCGTTC | 0.333 |
| AATCTAGC | -0.224 |
| TCCCAAAA | -0.149 |
| TAGCATCA | -0.204 |
| GCATCAGC | -0.107 |
| CACAGACC | 0.0406 |
| CAAGCAGG | -0.117 |
| AATCTGAA | -0.188 |
| CGTCTCGC | -0.06 |
| AGCAACTC | -0.139 |
| ACGGCCAA | 0.068 |
| AATTGAAT | -0.173 |
| CCACCACC | -0.0853 |
| ATCCGCGG | 0.284 |
| GTGACCCA | -0.184 |

| Sequence | PBM E-score |
| --- | --- |
| CTACCACC | 0.208 |
| CGTGCACG | 0.146 |
| GATGTTTA | 0.0404 |
| ATAATAGA | -0.0563 |
| CGACCACC | 0.134 |
| ATACACGA | 0.00363 |
| AGACAGGC | -0.231 |
| AAGGTCCT | -0.0429 |
| CATACATA | -0.0429 |
| AATCGAGT | -0.186 |
| CGATACCC | 0.0462 |
| AATAACGA | -0.0399 |
| AGTGTTCG | -0.0968 |
| CTGATCCC | -0.109 |
| CTACATAG | -0.163 |
| AGATGGCT | -0.12 |
| AAGCTCAC | -0.283 |
| CCCCTCGG | 0.111 |
| ATTCATTG | -0.111 |
| GCTTGCGA | -0.171 |
| ACCACGAC | -0.144 |
| GCCAATAC | 0.105 |
| ATAAGTGA | -0.163 |
| AATCAGGA | -0.268 |
| AGCGTAGA | -0.0503 |

| Sequence | PBM E-score |
| --- | --- |
| AGCTGCCC | -0.191 |
| ACAACGGA | 0.277 |
| ATCACATG | -0.196 |
| GACCCGCC | 0.251 |
| AAATGTTC | -0.138 |
| ATTCCGCA | 0.0974 |
| CTTTGAGA | -0.0922 |
| AACCCATG | -0.249 |
| TGCCACAA | -0.202 |
| CAACATTC | -0.229 |
| CGTTACGC | 0.129 |
| CCCCCTTC | -0.0804 |
| CTAAAAGC | 0.0851 |
| AGCGCTTC | -0.0248 |
| CCCGAACG | 0.168 |
| CAAAATGG | -0.00142 |
| TAACGGAA | 0.19 |
| ACCCGGGT | 0.267 |
| CACTTGGG | -0.0813 |
| CTCGAGGA | -0.238 |
| ACGGGACC | 0.168 |
| ACATGGTG | -0.042 |
| AAGAGCAT | -0.197 |
| AGTATCAG | -0.154 |
| ATGGCAAG | -0.0117 |

| Sequence | PBM E-score |
| --- | --- |
| CCTAACAG | -0.0238 |
| TCGCCTAA | -0.0792 |
| CATGGCTA | -0.257 |
| GCTTATTA | 0.0873 |
| ACGTTATG | 0.0611 |
| AGCTCATC | -0.255 |
| AACTCGAA | 0.0782 |
| GACGGGCA | 0.216 |
| CGCAGTAC | -0.0628 |
| CTTGCTGC | -0.215 |
| CGTTCAAC | 0.0199 |
| GATGCAAC | -0.0959 |
| TTAAGGAA | -0.136 |
| ACCGTGAG | 0.219 |
| CTAGATCA | -0.276 |
| AGGAAAGG | 0.148 |
| ACACGAAG | -0.0188 |
| ACTCGCCG | 0.0413 |
| CATCCCGC | 0.155 |
| GTACACCA | -0.182 |
| CAGACTCA | -0.255 |
| AGCCGCGA | 0.208 |
| ATACGAGG | -0.136 |
| CGTCGCGC | 0.0574 |
| GGACGATA | 0.0104 |

| Sequence | PBM E-score |
| --- | --- |
| AAACTAGT | -0.164 |
| GATTCCGA | 0.238 |
| ATGAGCGC | 0.0769 |
| CGCTCTTC | 0.0619 |
| AAAGATTA | 0.161 |
| GGACAGAA | 0.12 |
| AAGCCCTG | -0.101 |
| AATTTTGC | 0.00812 |
| AATATGCG | -0.0125 |
| GAAATGAC | -0.0378 |
| GCAGGACC | -0.0116 |
| GTTTCCGA | 0.0726 |
| CCACTATA | -0.0706 |
| GCCGGAGC | 0.286 |
| CCCATTCG | -0.0634 |
| AGGGATTC | -0.307 |
| CAGCATCG | -0.122 |
| CGCTGGCA | 0.0768 |
| CCATATGC | 0.0284 |
| CCCCATAA | -0.0966 |
| CCTATTAG | -0.137 |
| GGAACTGA | -0.0768 |
| ACGGATAG | -0.0573 |
| ATGTAAGG | -0.0435 |
| GACTAATA | 0.0517 |

| Sequence | PBM E-score |
| --- | --- |
| CGCTTCTC | 0.0972 |
| CCAGAGCC | -0.241 |
| CAGCGTCG | 0.0511 |
| ACGGCCGA | 0.2 |
| GATCTATA | 0.103 |
| ACCTGTCC | -0.065 |
| CTGGCCAC | -0.199 |
| AGTTAGCC | -0.101 |
| CAAACCCG | 0.216 |
| AGTGAACA | -0.0848 |
| TGGTCGAA | -0.359 |
| TAGAAATA | -0.103 |
| GATTTGTA | -0.177 |
| CGCTTTAG | 0.0767 |
| GTTGTTGA | -0.134 |
| AGAATGCC | 0.0721 |
| AAAGACAA | -0.0566 |
| ACCTGTTC | -0.2 |
| CACAGTGA | -0.288 |
| AACGGTTC | 0.0106 |
| CATGTGGG | -0.114 |
| GTCAGTTA | -0.113 |
| GTAATAAA | 0.22 |
| AGCACAAT | -0.248 |
| ACACCATC | -0.0629 |

| Sequence | PBM E-score |
| --- | --- |
| CCGGCAAA | 0.237 |
| ATCTACTG | -0.012 |
| GCACGTTA | -0.0204 |
| ACCGACGT | 0.355 |
| CATTCACA | -0.296 |
| ACTTGCTC | -0.251 |
| CTCTTCTC | -0.0917 |
| CCCAGGCG | 0.0265 |
| ACCATAAT | -0.102 |
| CATGTTTA | -0.0394 |
| AAATGCAG | -0.295 |
| GCGCCATA | 0.0695 |
| AGTTTGCA | -0.125 |
| TCAGGGAA | -0.124 |
| TCTTGCCA | -0.162 |
| CACAGATC | -0.0333 |
| AATGGGTC | -0.0706 |
| CGTCGTAA | -0.114 |
| CCGATCCC | 0.266 |
